Reference: PubChem BioAssay AID504832 (National Center for Advancing Translational Sciences (NCATS), 2011)
In all, about 310,000 compounds went through this assay and about 18,000 (5.8%) were called active. Inconclusive means that the source gave no clear call. Such entries were picked first, then a sample of the others. Calls come from the whole dose curve; as a rule, active = well fitted inhibition curve with a large enough effect; inconclusive = small, poorly fitted or top-dose-only effect, or another doubt; inactive = no such curve, though single readings can be large or run the other way. No potency is given beside an inconclusive call; the fits are too rough.

Experiment: Primary qHTS for delayed death inhibitors of the malarial parasite plastid, 48 hour incubation
Conditions: P. falciparum luciferase growth in erythrocytes; series mostly up to 28.7 µM
Summary of the method: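 Parasite viability was followed by luminescence of a genomically integrated firefly luciferase. Cultures held 0.1% parasitemia at 2% hematocrit (final), incubated under 5% CO2 at 37 C.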
Potency is the fitted concentration of half-maximal effect; tags give direction and shape of the fitted curve.

| Structure (SMILES) | Potency |
| --- | --- |
| CCOc1ccc2nc(NC(=O)CN3CCN(C)CC3)sc2c1 | inactive |
| O=C(COC(=O)c1cccs1)c1ccccc1 | inactive |
| CC(/C=N/NC(=O)c1ccncc1)=C\c1ccc(C(C)C)cc1 | active: 4.65 µM |
| O=C(NCCCO)c1c(O)c2cccc3c2n(c1=O)CCC3 | inactive |
| COc1ccccc1N1C(N)=NC(N)=NC12CCCCC2 | inconclusive [inhibitor, single point] |
| Cc1nnc(N2C(=O)c3cccc4c([N+](=O)[O-])ccc(c34)C2=O)s1 | inactive |
| CCC(C)(C)NC(=O)C(c1ccc(F)cc1)N(Cc1ccccc1)C(=O)c1cnccn1 (stereo unspecified) | inconclusive [inhibitor, single point] |
| Cc1ccc(C(=O)Nc2nnc(CC(=O)N/N=C/c3ccncc3)s2)cc1 | inactive |
| CC(=O)Nc1ccc(NC(=O)CSc2nc3ccccc3nc2N2CCCCC2)cc1 | inconclusive [inhibitor, single point] |
| O=C(c1ccc2c(c1)OCO2)N1CCC2(CC1)Oc1ccc(F)cc1C(=O)C21CC(c2cccnc2)=NO1 (stereo unspecified) | inconclusive [inhibitor, single point] |
| CCOc1ccc(NC(=O)c2cc3ccccc3cc2OC)cc1 | inactive |
| CN(C)/C=N/c1cc(=O)[nH]c(=O)n1C | inactive |
| COC(=O)CCC(=O)OC1(C)C(=O)C=C2C=C(C3CC3)N(CCCOC(C)C)C=C2C1=O (stereo unspecified) | active: 10.4 µM |
| Cc1cc(F)c(F)c(C(=O)N2C(C)CCCC2C)c1Cl (stereo unspecified) | inactive |
| Cn1c(=O)c2c(Nc3ccc(F)cc3)cc(=O)n(-c3ccccc3)c2n(C)c1=O | active: 2.33 µM |
| CC(C)(C)NC(=O)c1cc(NC(=O)c2ccco2)cc(NC(=O)c2ccco2)c1 | inconclusive [inhibitor, single point] |
| COc1ccc(Cc2nc3ccc(C(=O)N4CCCN(C=O)CC4)cc3o2)cc1 | inactive |
| O=C(C[n+]1cc(-c2ccc(F)cc2)n2c1CCC2)Nc1nc(-c2ccccc2)cs1 | inconclusive [inhibitor, partial curve] |
| CCOc1ccc(CNC(=O)c2nnc(CS(=O)(=O)c3ccccc3)o2)cc1OC | active: 4.65 µM |
| Cc1ccc(C)c(NC(=O)CN(C)C(=O)c2ccncc2)c1 | inactive |
| O=c1cc(C(F)(F)F)[nH]c2c(OC(F)(F)F)cccc12 | inactive |
| CCN(Cc1ccccc1)C(=O)CN1C(=O)COc2ccc(S(=O)(=O)NC3CCCC3)cc21 | inconclusive [inhibitor, single point] |
| c1ccc2c3c([nH]c2c1)C1(CCNCC1)NCC3 | inconclusive [inhibitor, single point] |
| Cc1cccc(NC(NC(=O)c2ccccn2)C(Cl)(Cl)Cl)c1 (stereo unspecified) | inconclusive [inhibitor, partial curve, poor fit] |

| Structure (SMILES) | Potency |
| --- | --- |
| CCCCc1nnc(NC(=O)C2CCN(c3ncnc4sc(C)c(C)c34)CC2)s1 | inconclusive [inhibitor, single point] |
| COc1ccc(C(=O)NCc2ccc3c(c2)OCO3)c(OC)c1 | inconclusive [inhibitor, single point] |
| CCC1CCCCN1C(=O)C1CC(c2cc(Cl)c(OC)cc2OC)=NO1 (stereo unspecified) | inconclusive [inhibitor, partial curve] |
| COC(=O)c1ccccc1S(=O)(=O)N1CCC(C(=O)N(C)CCOc2ccccc2)CC1 | inconclusive [inhibitor, single point] |
| Cc1oc(=O)oc1CN1CCN(c2cc3c(cc2F)c(=O)c(C(=O)O)c2n3C(C)S2)CC1 (stereo unspecified) | active: 2.39 µM |
| O=C(Cc1nc2ccccc2[nH]1)c1ccc([N+](=O)[O-])cc1 | active: 1.85 µM |
| O=C1/C(=C/c2cccnc2)SC(=S)N1CC1CCCO1 (stereo unspecified) | inactive |
| O=C(CNS(=O)(=O)c1c(Cl)cccc1Cl)OCC(=O)c1ccc[nH]1 | inactive |
| CN(C)c1nc(Nc2ccccc2)nc(Oc2ccc(=O)[nH]n2)n1 | inactive |
| O=S(=O)(c1ccc(Cl)cc1)c1nc(-c2ccccc2F)oc1NCCN1CCOCC1 | inconclusive [inhibitor, single point] |
| Cc1cccc(OCCC(=O)Nc2ccc(S(=O)(=O)N3CCCC3)cc2)c1 | inconclusive [inhibitor, partial curve] |
| COc1ccccc1C(CC(=O)Nc1ccc(C)c(C)c1)c1ccc(OC(C)C)cc1 (stereo unspecified) | inconclusive [inhibitor, single point] |
| CCOc1ccc(CN2CCN(Cc3cc4ccccc4[nH]3)CC2CCO)cc1 (stereo unspecified) | inconclusive [inhibitor, single point] |
| COc1ccc(F)cc1S(=O)(=O)NCC(c1ccco1)N1CCc2ccccc2C1 (stereo unspecified) | inconclusive [inhibitor, single point] |
| NC(=O)c1cc(NC(=O)c2cc(Br)c(Br)s2)cc(C(N)=O)c1 | inactive |
| C(=N\Nc1ccccn1)/c1c[nH]c2ccccc12 | inactive |
| CCNC(=O)n1nccc1C(C)Oc1cccc(C(F)(F)F)c1 (stereo unspecified) | inconclusive [inhibitor, partial curve, poor fit] |
| CSCc1cc(N2CCOCC2)nc(SCc2ccc(Cl)c(Cl)c2)n1 | inconclusive [inhibitor, single point] |
| CCOC(=O)C1CCCN(CCC(=O)Nc2cccc(F)c2)C1 (stereo unspecified) | inactive |
| CC1CCN(S(=O)(=O)c2ccc(C(=O)Nc3nnc(-c4ccncc4)o3)cc2)CC1 | inconclusive [inhibitor, single point] |
| O=c1[nH]c(/C=C\c2cccnc2)c([N+](=O)[O-])c(=O)[nH]1 | inconclusive [inhibitor, single point] |
| COc1ccc(C2c3[nH]c4ccccc4c3CCN2C(=O)c2ccccc2C(C)=O)c(F)c1 (stereo unspecified) | inconclusive [inhibitor, partial curve, poor fit] |
| O=C(COC(=O)c1ccc(Cl)nc1)Nc1ccc(S(=O)(=O)N2CCCC2)cc1 | inactive |
| Cc1ccc(-n2nc3c(N4CCC(C(=O)N5CCCCCC5)CC4)nnc(C)c3c2C)cc1 | inconclusive [inhibitor, partial curve] |

| Structure (SMILES) | Potency |
| --- | --- |
| Cc1ccc(C(OCC(O)CNC(CO)C(O)c2ccc([N+](=O)[O-])cc2)c2ccccc2)cc1 (stereo unspecified) | inconclusive [inhibitor, partial curve, poor fit] |
| CC(=O)Nc1ccc(Nc2nc(C)c([N+](=O)[O-])c(Nc3ccccc3)n2)cc1 | inconclusive [inhibitor, single point] |
| Fc1ccc(OCCOCCOc2cccc3[nH]ccc23)cc1 | inconclusive [inhibitor, single point] |
| CCOC(=O)c1c(NC(=O)Cn2nc(C(F)(F)F)cc2C)sc(C)c1C | inactive |
| CS(=O)(=O)c1ccc(Cl)c(NC(=O)CN2CCCC2c2ccc3c(c2)OCCCO3)c1 (stereo unspecified) | inconclusive [inhibitor, single point] |
| O=C(C1=C[C@H](c2ccccc2)C[C@H](OCc2ccc(CO)cc2)O1)N1CCCCCCC1 | inconclusive [inhibitor, partial curve] |
| O=C(c1ccco1)N1CCN(C23CC4CC(CC(C4)C2)C3)CC1 | inactive |
| O=C(Nc1nnc2n1CCS2)c1ccco1 | inactive |
| COC(=O)C1=C(c2ccc(F)cc2OCc2ccccc2)C[C@@H]2CC[C@H]1N2C(=O)NCCCc1ccccc1 | active: 11.7 µM |
| O=C(Nc1cccc(S(=O)(=O)N2CCCC2)c1)c1ccccc1OC(F)F | inconclusive [inhibitor, single point] |
| C=C(C)COc1ccc2c(C)c(C)c(=O)oc2c1OCC(=C)C | active: 11.7 µM |
| Cc1ccc(NP(=O)(c2ccc(N(C)C)cc2NC(=O)c2cccs2)N2CCOCC2)cc1Cl (stereo unspecified) | inconclusive [inhibitor, single point] |
| CC(=O)c1ccccc1N(C(=O)Cn1nnc2ccccc21)C(C(=O)NCC1CCCO1)c1ccc(N2CCOCC2)cc1 (stereo unspecified) | inconclusive [inhibitor, partial curve, poor fit] |
| COc1cccc(/C=N/n2c(N)c(S(=O)(=O)c3cccs3)c3nc4ccccc4nc32)c1OC | inconclusive [inhibitor, single point] |
| O=C(Cc1cccs1)Nc1ccc([N+](=O)[O-])cc1 | inactive |
| CCCN(CCC)S(=O)(=O)c1ccc(NC(=O)C2CCCO2)cc1 (stereo unspecified) | inconclusive [inhibitor, single point] |
| Clc1ccc(OCc2nnc(SCCN3CCCCC3)n2Cc2ccco2)cc1 | inconclusive [inhibitor, single point] |
| CCOC(=O)N1CCC(N2CCCC(C(=O)c3cccc(OC(C)C)c3)C2)CC1 (stereo unspecified) | inconclusive [inhibitor, single point] |
| O=S(=O)(c1cccs1)N1CCN(c2ccnc3cc(Cl)ccc23)CC1 | active: 9.28 µM |
| COC(=O)C1=C(C(=O)OC)[C@@H]2N(C)c3ccccc3[C@@]23C[C@@H](CO)N(C(=O)NCCBr)C3=N1 | active: 9.28 µM |
| C#CCN(C)CC/C=C1\c2ccccc2CSc2ccccc21 | active: 13.1 µM |
| COC(=O)C1=C(C)NC(C)=C(C(=O)OC)C1C1CC=CCC1 (stereo unspecified) | inconclusive [inhibitor, partial curve, poor fit] |
| O=C(Nc1cccc(F)c1)C1CCN(C(=O)Cc2ccccc2)CC1 | inconclusive [inhibitor, partial curve] |
